Experimental data published in publication PMC4336329 (PLoS ONE, 2015).
The whole screen tested about 310,000 compounds, of which about 14,000 (4.5%) showed an effect of 50% or more. Effects have a minus sign here. Some of the results follow.

These compounds were tested against human ether-à-go-go-related gene (hERG) potassium channel (human, UniProt Q12809) (assay: primary screen, population patch clamp on CHO cells stably expressing hERG).
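Further: peak tail current of the secondary pulse compared with the same well before compound.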

Chain of human ether-à-go-go-related gene (hERG) potassium channel (Q12809 whole entry, looked up): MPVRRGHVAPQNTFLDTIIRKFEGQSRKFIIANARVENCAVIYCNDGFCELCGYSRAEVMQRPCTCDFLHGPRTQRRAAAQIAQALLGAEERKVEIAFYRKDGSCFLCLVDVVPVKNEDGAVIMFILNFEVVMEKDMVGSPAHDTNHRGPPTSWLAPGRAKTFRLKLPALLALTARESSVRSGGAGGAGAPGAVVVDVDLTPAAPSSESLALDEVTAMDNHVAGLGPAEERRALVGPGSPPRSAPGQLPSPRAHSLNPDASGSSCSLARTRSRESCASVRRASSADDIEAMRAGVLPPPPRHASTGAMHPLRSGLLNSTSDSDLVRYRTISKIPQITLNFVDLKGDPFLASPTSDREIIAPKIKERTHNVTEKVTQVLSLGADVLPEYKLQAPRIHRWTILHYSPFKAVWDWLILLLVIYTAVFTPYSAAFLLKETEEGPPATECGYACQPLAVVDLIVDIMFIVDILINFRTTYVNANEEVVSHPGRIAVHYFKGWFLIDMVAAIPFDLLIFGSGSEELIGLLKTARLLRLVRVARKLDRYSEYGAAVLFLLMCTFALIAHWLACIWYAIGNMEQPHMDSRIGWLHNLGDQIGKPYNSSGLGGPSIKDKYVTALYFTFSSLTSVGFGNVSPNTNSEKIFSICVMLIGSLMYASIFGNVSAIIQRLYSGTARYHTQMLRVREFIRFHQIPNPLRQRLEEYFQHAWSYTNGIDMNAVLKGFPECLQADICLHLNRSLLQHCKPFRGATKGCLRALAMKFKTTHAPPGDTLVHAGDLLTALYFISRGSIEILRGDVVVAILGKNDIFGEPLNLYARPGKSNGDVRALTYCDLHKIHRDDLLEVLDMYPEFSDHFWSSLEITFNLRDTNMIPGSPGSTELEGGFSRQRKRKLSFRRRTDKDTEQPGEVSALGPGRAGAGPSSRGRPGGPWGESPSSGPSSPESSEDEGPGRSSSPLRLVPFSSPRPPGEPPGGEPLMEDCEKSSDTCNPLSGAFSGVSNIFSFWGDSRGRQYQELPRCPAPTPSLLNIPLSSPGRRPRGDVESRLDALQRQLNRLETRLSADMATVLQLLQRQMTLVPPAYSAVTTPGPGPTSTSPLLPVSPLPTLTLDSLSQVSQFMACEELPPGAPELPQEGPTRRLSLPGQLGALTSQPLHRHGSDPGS

Row | Structure (SMILES) | hERG current change (%, negative = inhibition) at 10uM [%]
1 | CCOc1ccc(CNC(=O)CCCC(=O)n2nc(C)c3ccccc32)cc1 | -12.4
2 | CN1c2ccc(Cl)cc2C(=O)NC1C1CC=CCC1 (stereo not drawn) | 7.1
3 | Cc1cccc(N2CCN(C(=O)c3cc(S(=O)(=O)N4CCOCC4)cn3C)CC2C)c1 (stereo not drawn) | 8.88
4 | N#C/C(=C(/O)c1ccc([N+](=O)[O-])cc1)c1nnc2n1CCCCC2 | -1.37
5 | Cc1ccc(C(=O)O)cc1S(=O)(=O)N1CCCC1 | -4.72
6 | O=C(C(NS(=O)(=O)c1cccs1)c1ccccc1)N1CCN(c2ccccc2)CC1 (stereo not drawn) | -33.4
7 | Cn1c(SCC(=O)N2CCCC2)nnc1-c1ccc(S(=O)(=O)N2CCCC2)cc1 | -5.2
8 | CCOP(=O)(OCC)C(NC(=O)Nc1c(C)cc(C)cc1C)c1ccccc1 (stereo not drawn) | 4.12
9 | CCOC(=O)c1cccc(NC(=O)CCNS(=O)(=O)c2ccc3c(c2)CCN3C(=O)CC)c1 | -37.2
10 | Fc1ccc(N/N=C2/CCSc3sccc32)c(F)c1 | -1.19
11 | Oc1ccc(-c2csc(Nc3ccccn3)n2)c(O)c1 | 14.7
12 | COc1ccc(C)cc1NC(=O)CN1CCN(S(=O)(=O)c2ccc(C(C)C)cc2)CC1 | -2.46
13 | CCOc1ccc(OCC)c(NS(=O)(=O)c2ccc3c(c2)n(C)c(=O)c(=O)n3C)c1 | -37.8
14 | Cl.O=C(O)c1ccc(CNCc2cccc(OCc3ccc(F)cc3)c2)cc1 | 25.5
15 | Cc1ccc(C(=O)OCC(=O)N(C)c2ccccc2)cc1C | -9.59
16 | O=C(NNC(=S)NC1CCCCC1)c1sc2ccccc2c1Cl | 7.99
17 | Cc1ccccc1N=C1NC(=O)CS1 | 13.5
18 | COc1ccc(Cn2cnc3c(N)c(C)c(C)cc32)cc1 | 5.13
19 | CN(CC(=O)NC(=O)NC(C)(C)C)CC(=O)Nc1ccccc1Cl | 3.53
20 | COc1ccc(-c2noc(CNC(=O)c3ccoc3C)n2)cc1OC | 18.6
21 | CN(C)N=Nc1ccc(S(N)(=O)=O)cc1 | 15.4
22 | C/C=C/c1ccc(OCC(=O)Nc2ccncc2)c(OC)c1 | -14.9
23 | Cn1c(=O)c2c(nc(Cl)n2CCOc2ccccc2)n(C)c1=O | 6.36

Row | Structure (SMILES) | hERG current change (%, negative = inhibition) at 10uM [%]
24 | CCCCCn1c(C(Cc2ccccc2)NC(=O)COC)nc2ccccc21 (stereo not drawn) | -45.9
25 | CCOC(=O)c1cc(CC)sc1NC(=O)c1ccc2c(c1)OCCO2 | -3.4
26 | O=C1c2ccccc2-c2onc3ccc(Oc4ccccc4)c1c23 | -13.8
27 | CCSc1nnc(NC(=O)c2cccnc2)s1 | 2.16
28 | S=C1NCN(C2CCCCC2)CN1c1ccccc1 | 17.1
29 | O=C(O)/C=C/c1ccc(S(=O)(=O)Nc2cccnc2)cc1 | 17.1
30 | COCCNC(=O)c1cc2sccc2n1C | 1.67
31 | CCOC(=O)C1CCCCN1Cc1cn[nH]c1-c1ccc(F)cc1F (stereo not drawn) | 1.06
32 | O=C(NCc1ccco1)C1CCC(CNS(=O)(=O)c2cccc3cccnc23)CC1 (stereo not drawn) | 13.6
33 | O=[N+]([O-])c1ccc(Oc2cccc(C(F)(F)F)c2)nc1 | 3.06
34 | C=CCOn1c(=O)c(-c2ccc(OC)c(OC)c2)[n+]([O-])c2ccccc21 | -5.62
35 | COc1ccc(C(C)=O)cc1Cn1nnc(-c2ccccc2Br)n1 | -21.9
36 | COCCNc1nc(SCc2ccccc2)nc2sc3c(c12)CCC3 | -1.51
37 | O=C(c1ccccc1)c1ccc(OCCn2cnc3ccccc3c2=O)cc1 | -0.949
38 | COc1ccc(CNC(=O)CN(C)S(=O)(=O)c2ccc(Cl)cc2)cc1 | -20.4
39 | O=C(CN1C(=O)C(=O)N(C2CCCC2)C1=O)Nc1ccc(OC(F)F)cc1 | 0.249
40 | CCOC(=O)N1CCN(CC(O)COc2cc(C)cc(C)c2)CC1.Cl (stereo not drawn) | -12.7
41 | O=C(/C=C/c1ccc2ccccc2n1)c1cc(Br)ccc1O | -0.463
42 | O=C(O)CNc1nc(Cl)ccc1[N+](=O)[O-] | 6.24
43 | COc1ccc(OC(=O)c2c(C)nn(-c3ccccc3)c2C)cc1 | 3.71
44 | Fc1cccc(F)c1-n1c(CN2CCOCC2)csc1=S | 40.8
45 | CSCCC(NC(=O)OCc1ccccc1)C(=O)O (stereo not drawn) | 8.89
46 | CC(=O)C1C(c2cn(-c3ccccc3)nc2-c2cccs2)NC(=O)NC1(O)C(F)(F)F (stereo not drawn) | 11.6

Row | Structure (SMILES) | hERG current change (%, negative = inhibition) at 10uM [%]
47 | COc1cccc(-n2c(-c3ccco3)nc3nc4ccccc4nc32)c1 | 18.4
48 | Cc1ccc(NC(=S)NN(C)c2cc(C)nc(C)n2)cc1 | -4.1
49 | O=C(NC1CC(=O)N(c2ccc(F)cc2)C1)C(=O)c1c[nH]c2ccccc12 (stereo not drawn) | -1.77
50 | COc1ccc(NC(=O)CSc2nnc(-c3ccccn3)n2N)cc1 | 9.24
51 | Cc1ccc(-c2nnn(CC(=O)N(c3ccc(F)cc3)C(C(=O)NC3CCCC3)c3ccncc3)n2)o1 (stereo not drawn) | 8.7
52 | CC1CCCN(CC(O)COc2ccc3c(c2)OCO3)C1.Cl (stereo not drawn) | -15.1
53 | COC(=O)[C@H](Cc1ccccc1)N(C)S(=O)(=O)c1cccc(S(=O)(=O)N(C)[C@@H](Cc2ccccc2)C(=O)OC)c1 | 7.14
54 | COc1ccc(Cl)cc1NC(=O)/C=C/C(=O)O | 13.6
55 | Nc1cc(=O)[nH]c(SCCSc2ccc(F)cc2)n1 | 0.794
56 | COc1ccc(CNC(=O)C2CCCC2)cc1 | 9.34
57 | COc1ccc(Cc2nc3ccc(C(=O)NCc4cc(C)no4)cc3o2)cc1OC | -3.66
58 | COc1cccc(CC(=O)Nc2cc(S(=O)(=O)N3CCOCC3)ccc2N2CCOCC2)c1 | -9.41
59 | CCOCc1c(C(=O)OCC(=O)/C(C#N)=C(\C)N)oc2ccccc12 | 13.6
60 | CCN(CC)CCCNC(=O)Cn1ccc2ccccc2c1=O | 29.8
61 | Cc1n[nH]c(=O)c2c1nnn2Cc1ccc(F)cc1 | 4.2
62 | O=C1NCCCC1C(=O)N1CCN(C(=O)c2ccco2)CC1 (stereo not drawn) | 1.03
63 | Cc1cnc(NC(=O)c2sc(Nc3ccccc3)nc2N)o1 | 16.6
64 | CCN(CCCn1c(=S)[nH]c2ccc(N3CCOCC3)cc2c1=O)c1ccccc1 | 5.99
65 | O=C(COC(=O)c1cc[n+]([O-])cc1)NCCc1ccc(Cl)cc1Cl | 53.4
66 | CCCCCN(C(=O)CCC(=O)OCc1cccc(Br)c1)c1c(N)n(CCCC)c(=O)[nH]c1=O | -13.4
67 | COc1cccc(C2CC(C(F)(F)F)n3ncc(C(=O)NCc4ccco4)c3N2)c1 (stereo not drawn) | -29.9
68 | Cc1ccc(C)c(N2CCN(C(=O)CCS(=O)(=O)c3ccc4c(c3)NC(=O)C(C)S4)CC2)c1 (stereo not drawn) | 21.1
69 | CCOc1cc(NC(=S)NCc2ccco2)c(OCC)cc1NC(C)=O | -3.02

Row | Structure (SMILES) | hERG current change (%, negative = inhibition) at 10uM [%]
70 | CCOCCC(=O)Nc1nnc(CCc2ccccc2)s1 | -7.42
71 | O=C(c1ccccc1CCc1ccccc1)N1CCN(c2ccccn2)CC1 | -37.7
72 | COc1ccc(N2CCN(C(=O)CNC(=O)c3cccc(Br)c3)CC2)cc1 | -0.254
73 | COc1cccc(OC)c1-c1nnc(-c2cn(C)c3ccccc23)o1 | 10.7
74 | O=C(O)C(=O)O.c1ccc(COc2ccc(OCCCCN3CCCC3)cc2)cc1 | -64
75 | C[C@H](O)CC(=O)O | 6.58
76 | CC(NC(=O)Nc1ccc(Cl)c(Cl)c1)C(c1ccccc1)N1CCOCC1 (stereo not drawn) | -24.5
77 | Cc1cc(C)c(C(=O)CSc2nnc(-c3cccnc3)n2C)c(C)c1 | -22.4
78 | O=C(OCCCc1cc2ccccc2c(=O)o1)c1ccccc1C(F)(F)F | 1.58
79 | CCOc1cccc(CNCCSc2nnnn2C)c1.Cl | 9.44
80 | COCCNC(=O)C(c1ccc(F)cc1)N(Cc1ccco1)C(=O)CCC(=O)Nc1ccccn1 (stereo not drawn) | -0.852
81 | CCOc1ccc(CCNC(=O)CN2C(=O)COc3ccc(S(=O)(=O)N4CCOCC4)cc32)cc1 | -6.84
82 | COC(=O)C1C(=O)C2=C(CC1C)NC(C)=C(C(=O)OCc1ccc(OC)cc1)C2c1ccc(C)o1 (stereo not drawn) | -5.1
83 | COc1cccc(-c2nc(CS(=O)(=O)CC(=O)NCCc3ccccc3)c(C)o2)c1 | 0.232
84 | Nc1ccc2c(c1)COc1ccccc1O2 | -8.58
85 | O=C1C(=O)c2ccccc2C(O)=C1c1ccccc1F | 14.1
86 | O=C(Nc1nccs1)c1ccc(-c2ccc(Cl)cc2Cl)o1 | 25.5
87 | CCN1CCN(C(=O)Nc2ccc(Cc3ccc(NC(=O)N4CCN(CC)CC4)cc3)cc2)CC1 | 6.12
88 | CCOc1cc(C(=O)NCCN2CCOCC2)cc(OCC)c1OCC | -7.99
89 | CC(NC(=O)Cc1ccccc1)C(=O)O (stereo not drawn) | 11.4
90 | CC(=O)c1cnc(Nc2nc(C)c3ccccc3n2)nc1C | 17.3
